Data published in the supplement of paper PMC11148083.
In brackets after ≈: the same amount, converted by molar mass. Several values for one entry are separate records, joined by “and”; a condition that tells them apart may be missing. Equal entries are not always repeated. MIC of E. coli strains with or without a β-lactamase plasmid, in LB (broth microdilution, 22 h, 37 °C, OD600 below 0.2; fosfomycin by agar dilution); pBAD18 genes induced with arabinose where stated. Higher = less susceptible. No active / inactive call. Values are arithmetic means of replicate MICs, so they fall between dilution steps. Colistin is a mixture; one drawing stands for it.

Key:
Assay in all cases: Broth microdilution in LB (fosfomycin: agar dilution), 22 h at 37 °C; MIC = lowest dose with OD600 below 0.2.
Escherichia coli ECOR27 = system: Escherichia coli ECOR27
Escherichia coli J53 = system: Escherichia coli J53
Escherichia coli ECOR53 = system: Escherichia coli ECOR53
Escherichia coli ECOR61 = system: Escherichia coli ECOR61
[1] = system: Escherichia coli BW25113 (arabinose: 0.5% w/v)
Escherichia coli ECOR49 = system: Escherichia coli ECOR49
Escherichia coli ECOR47 = system: Escherichia coli ECOR47
Escherichia coli ECOR70 = system: Escherichia coli ECOR70
Escherichia coli ECOR01 = system: Escherichia coli ECOR01
Escherichia coli ECOR35 = system: Escherichia coli ECOR35
Escherichia coli ECOR42 = system: Escherichia coli ECOR42

CCC(C)CCCC(=O)N[C@@H](CCN)C(=O)N[C@H](C(=O)N[C@@H](CCN)C(=O)N[C@H]1CCNC(=O)[C@H]([C@@H](C)O)NC(=O)[C@H](CCN)NC(=O)[C@H](CCN)NC(=O)[C@H](CC(C)C)NC(=O)[C@@H](CC(C)C)NC(=O)[C@H](CCN)NC1=O)[C@@H](C)O (stereo partly drawn) [colistin]
Conditions	MIC
Escherichia coli ECOR01, plasmid: none	6 mg/L (≈ 5.19 µM)
Escherichia coli ECOR01, plasmid: pUN4 empty	6 mg/L (≈ 5.19 µM)
Escherichia coli ECOR01, plasmid: pUN4 with blaCTX-M-15	3.33 mg/L (≈ 2.88 µM)
Escherichia coli ECOR01, plasmid: pUN4 with blaOXA-48	3.17 mg/L (≈ 2.74 µM)
Escherichia coli ECOR27, plasmid: none	7.33 mg/L (≈ 6.35 µM)
Escherichia coli ECOR27, plasmid: pUN4 empty	7.33 mg/L (≈ 6.35 µM)
Escherichia coli ECOR27, plasmid: pUN4 with blaCTX-M-15	4 mg/L (≈ 3.46 µM)
Escherichia coli ECOR27, plasmid: pUN4 with blaOXA-48	3.67 mg/L (≈ 3.17 µM)
Escherichia coli ECOR35, plasmid: none	8 mg/L (≈ 6.92 µM)
Escherichia coli ECOR35, plasmid: pUN4 empty	6 mg/L (≈ 5.19 µM)
Escherichia coli ECOR35, plasmid: pUN4 with blaCTX-M-15	4 mg/L (≈ 3.46 µM)
Escherichia coli ECOR35, plasmid: pUN4 with blaOXA-48	4 mg/L (≈ 3.46 µM)
Escherichia coli ECOR42, plasmid: none	6.67 mg/L (≈ 5.77 µM)
Escherichia coli ECOR42, plasmid: pUN4 empty	6.67 mg/L (≈ 5.77 µM)
Escherichia coli ECOR42, plasmid: pUN4 with blaCTX-M-15	4.67 mg/L (≈ 4.04 µM)
Escherichia coli ECOR42, plasmid: pUN4 with blaOXA-48	6 mg/L (≈ 5.19 µM)
Escherichia coli ECOR47, plasmid: none	7.33 mg/L (≈ 6.35 µM)
Escherichia coli ECOR47, plasmid: pUN4 empty	6.67 mg/L (≈ 5.77 µM)
Escherichia coli ECOR47, plasmid: pUN4 with blaCTX-M-15	4.67 mg/L (≈ 4.04 µM)
Escherichia coli ECOR47, plasmid: pUN4 with blaOXA-48	5.33 mg/L (≈ 4.62 µM)
Escherichia coli ECOR49, plasmid: none	4 mg/L (≈ 3.46 µM)
Escherichia coli ECOR49, plasmid: pUN4 empty	6 mg/L (≈ 5.19 µM)
Escherichia coli ECOR49, plasmid: pUN4 with blaCTX-M-15	3.17 mg/L (≈ 2.74 µM)
Escherichia coli ECOR49, plasmid: pUN4 with blaOXA-48	2.2 mg/L (≈ 1.9 µM)
Escherichia coli ECOR53, plasmid: none	3.33 mg/L (≈ 2.88 µM)
Escherichia coli ECOR53, plasmid: pUN4 empty	4.33 mg/L (≈ 3.75 µM)
Escherichia coli ECOR53, plasmid: pUN4 with blaCTX-M-15	3.33 mg/L (≈ 2.88 µM)
Escherichia coli ECOR53, plasmid: pUN4 with blaOXA-48	3 mg/L (≈ 2.6 µM)
Escherichia coli ECOR61, plasmid: none	3.67 mg/L (≈ 3.17 µM)
Escherichia coli ECOR61, plasmid: pUN4 empty	4 mg/L (≈ 3.46 µM)
Escherichia coli ECOR61, plasmid: pUN4 with blaCTX-M-15	3 mg/L (≈ 2.6 µM)
Escherichia coli ECOR61, plasmid: pUN4 with blaOXA-48	3.33 mg/L (≈ 2.88 µM)
Escherichia coli ECOR70, plasmid: none	6 mg/L (≈ 5.19 µM)
Escherichia coli ECOR70, plasmid: pUN4 empty	6 mg/L (≈ 5.19 µM)
Escherichia coli ECOR70, plasmid: pUN4 with blaCTX-M-15	3.33 mg/L (≈ 2.88 µM)
Escherichia coli ECOR70, plasmid: pUN4 with blaOXA-48	3.33 mg/L (≈ 2.88 µM)
Escherichia coli J53, plasmid: none	4.73 mg/L and 6 mg/L
Escherichia coli J53, plasmid: pOXA-48 DEL (blaOXA-48 not expressed)	4.53 mg/L (≈ 3.92 µM)
Escherichia coli J53, plasmid: pOXA-48 PV-B (blaOXA-48)	1.83 mg/L (≈ 1.59 µM)
Escherichia coli J53, plasmid: pOXA-48 PV-D (blaOXA-48)	2.17 mg/L (≈ 1.88 µM)
Escherichia coli J53, plasmid: pOXA-48 PV-E (blaOXA-48)	1.67 mg/L (≈ 1.44 µM)
Escherichia coli J53, plasmid: pOXA-48 PV-K (blaOXA-48)	1.83 mg/L (≈ 1.59 µM)
Escherichia coli J53, plasmid: pOXA-48 PV-O (blaOXA-48)	1.83 mg/L (≈ 1.59 µM)
Escherichia coli J53, plasmid: pOXA-48 TET (blaOXA-48 replaced by tetC)	3.67 mg/L (≈ 3.17 µM)
Escherichia coli J53, plasmid: pOXA-48 WT (blaOXA-48)	1.8 mg/L (≈ 1.56 µM)
Escherichia coli J53, plasmid: pUN4 empty	6 mg/L and 5.11 mg/L
Escherichia coli J53, plasmid: pUN4 with blaCTX-M-15	3.33 mg/L (≈ 2.88 µM)
Escherichia coli J53, plasmid: pUN4 with blaOXA-48	3.67 mg/L and 1.78 mg/L
Escherichia coli J53, plasmid: pUN4 with the DEL allele of blaOXA-48	4.67 mg/L (≈ 4.04 µM)
[1], plasmid: none	7.33 mg/L (≈ 6.35 µM)
[1], plasmid: pBAD18 empty	6 mg/L (≈ 5.19 µM)
[1], plasmid: pBAD18 with blaCTX-M-14	4 mg/L (≈ 3.46 µM)
[1], plasmid: pBAD18 with blaCTX-M-15	4 mg/L (≈ 3.46 µM)
[1], plasmid: pBAD18 with blaKPC-2	4.67 mg/L (≈ 4.04 µM)
[1], plasmid: pBAD18 with blaNDM-1	4.67 mg/L (≈ 4.04 µM)
[1], plasmid: pBAD18 with blaOXA-1	4.67 mg/L (≈ 4.04 µM)
[1], plasmid: pBAD18 with blaOXA-48	3.67 mg/L (≈ 3.17 µM)
[1], plasmid: pBAD18 with blaTEM-1	4.67 mg/L (≈ 4.04 µM)
